Assay results taken from the supplement of paper PMC11876631.
± gives the standard deviation of the averaged measurements. Laboratory Escherichia coli strains with one amino-acid change in an essential protein, pooled on minimal glucose agar with carbenicillin or gentamicin at twice the control MIC (plus kanamycin and chloramphenicol for the plasmids), 48 h. Fold change of barcode share against drug-free plates; higher = less susceptible. Active = above 20 in both replicates (the paper's putatively resistant). '<' = one read or none on drug, '>' = one read or none on a drug-free plate. Shares are relative, so most strains fall below 1 when a few take over. Listed are strains with at least 15 reads on both drug-free plates, and hits; most hits rest on fewer reference reads. Replicate rank correlation about 0.5. Edits are read from barcodes.

B1: yihA; numbered along this chain (parent)
chain: MTNLNYQQTHFVMSAPDIRHLPSDTGIEVAFAGRSNAGKSSALNTLTNQKSLARTSKTPGRTQLINLFEVADGKRLVDLPGYGYAEVPEEMKRKWQRALGEYLEKRQSLQGLVVLMDIRHPLKDLDQQMIEWAVDSNIAVLVLLTKADKLASGARKAQLNMVREAVLAFNGDVQVETFSSLKKQGVDKLRQKLDTWFSEMQPVEETQDGE

Variants of: B1
Assay: barcode share on antibiotic plates over drug-free plates; higher = less susceptible
Settings: with Escherichia coli (laboratory strain); antibiotic: carbenicillin; 2× MIC (3.1 µg/mL)
Method: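 A pool of E. coli strains, each edited to carry one amino-acid change in an essential protein, was grown for 48 h on minimal glucose agar with or without antibiotic; strain barcodes were sequenced; mean of two replicates.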

Variant | fold change of barcode share
MTNLNYQQTHFVMSAPDIRHLPSDTGIEVAFAGRSNAGKSSALNTLTNQKSLARTSKTPGRTQLINLFEVADGKRLVDLPGYGYAEVPEEMKRKWQRALGEYLEKRQSLQGLVVWMDIRHPLKDLDQQMIEWAVDSNIAVLVLLTKADKLASGARKAQLNMVREAVLAFNGDVQVETFSSLKKQGVDKLRQKLDTWFSEMQPVEETQDGE [L115W] | 0.398 ± 0.15
MTNLNYQQTHFVMSAPDIRHLPSDTGIEVAFAGRSNAGKSSALNTLTNQKSLARTSKTPGRTQLINLFEVADGKRLVDLPGYGYAEVPEEMKRKWQRALGEYLEKRQSLQGLVVLMDIRHPLKDLDQQMIEWAVDSNIAVAVLLTKADKLASGARKAQLNMVREAVLAFNGDVQVETFSSLKKQGVDKLRQKLDTWFSEMQPVEETQDGE [L141A] | 0.253 ± 0.11
MTNLNYQQTHFVMSAPDIRHLPSDTGIEVAFAGRSNAGKSSALNTLTNQKSLARTSKTPGRTQLINLFEVADGKRLVDLPGYGYAEVPEEMKRKWQRALGEYLEKRQSLQGLVVLMDIRHPLKDLDQQMIEWAVDSNIAVDVLLTKADKLASGARKAQLNMVREAVLAFNGDVQVETFSSLKKQGVDKLRQKLDTWFSEMQPVEETQDGE [L141D] | 0.298 ± 0.14
MTNLNYQQTHFVMSAPDIRHLPSDTGIEVAFAGRSNAGKSSALNTLTNQKSLARTSKTPGRTQLINLFEVADGKRLVDLPGYGYAEVPEEMKRKWQRALGEYLEKRQSLQGLVVLMDIRHPLKDLDQQMIEWAVDSNIAVLALLTKADKLASGARKAQLNMVREAVLAFNGDVQVETFSSLKKQGVDKLRQKLDTWFSEMQPVEETQDGE [V142A] | 0.33 ± 0.061
MTNLNYQQTHFVMSAPDIRHLPSDTGIEVAFAGRSNAGKSSALNTLTNQKSLARTSKTPGRTQLINLFEVADGKRLVDLPGYGYAEVPEEMKRKWQRALGEYLEKRQSLQGLVVLMDIRHPLKDLDQQMIEWAVDSNIAVLPLLTKADKLASGARKAQLNMVREAVLAFNGDVQVETFSSLKKQGVDKLRQKLDTWFSEMQPVEETQDGE [V142P] | 0.16 ± 0.15
MTNLNYQQTHFVMSAPDIRHLPSDTGIEVAFAGRSNAGKSSALNTLTNQKSLARTSKTPGRTQLINLFEVADGKRLVDLPGYGYAEVPEEMKRKWQRALGEYLEKRQSLQGLVVLMDIRHPLKDLDQQMIEWAVDSNIAVLVLATKADKLASGARKAQLNMVREAVLAFNGDVQVETFSSLKKQGVDKLRQKLDTWFSEMQPVEETQDGE [L144A] | 0.22 ± 0.045
MTNLNYQQTHFVMSAPDIRHLPSDTGIEVAFAGRSNAGKSSALNTLTNQKSLARTSKTPGRTQLINLFEVADGKRLVDLPGYGYAEVPEEMKRKWQRALGEYLEKRQSLQGLVVLMDIRHPLKDLDQQMIEWAVDSNIAVLVLQTKADKLASGARKAQLNMVREAVLAFNGDVQVETFSSLKKQGVDKLRQKLDTWFSEMQPVEETQDGE [L144Q] | 0.27 ± 0.2
MTNLNYQQTHFVMSAPDIRHLPSDTGIEVAFAGRSNAGKSSALNTLTNQKSLARTSKTPGRTQLINLFEVADGKRLVDLPGYGYAEVPEEMKRKWQRALGEYLEKRQSLQGLVVLMDIRHPLKDLDQQMIEWAVDSNIAVLVLLTKADKLASGARKAQLNMVREAVLAFNGDVQVETFSSLKKQGVDKQRQKLDTWFSEMQPVEETQDGE [L189Q] | 0.382 ± 0.26
MTNLNYQQTHFVMSAPDIRHLPSDTGIEVAFAGRSNAGKSSALNTLTNQKSLARTSKTPGRTQLINLFEVADGKRLVDLPGYGYAEVPEEMKRKWQRALGEYLEKRQSLQGLVVLMDIRHPLKDLDQQMIEWAVDSNIAVLVLLTKADKLASGARKAQLNMVREAVLAFNGDVQVETFSSLKKQGVDKWRQKLDTWFSEMQPVEETQDGE [L189W] | 0.304 ± 0.093

Same assay, conditions: with Escherichia coli (laboratory strain); antibiotic: gentamicin; 2× MIC (MIC 0.45 µg/mL)

Variant | fold change of barcode share
MTNLNYQQTHFVMSAPDIRHLPSDTGIEVAFAGRSNAGKSSALNTLTNQKSLARTSKTPGRTQLINLFEVADGKRLVDLPGYGYAEVPEEMKRKWQRALGEYLEKRQSLQGLVVWMDIRHPLKDLDQQMIEWAVDSNIAVLVLLTKADKLASGARKAQLNMVREAVLAFNGDVQVETFSSLKKQGVDKLRQKLDTWFSEMQPVEETQDGE [L115W] | 2.7 ± 2.9
MTNLNYQQTHFVMSAPDIRHLPSDTGIEVAFAGRSNAGKSSALNTLTNQKSLARTSKTPGRTQLINLFEVADGKRLVDLPGYGYAEVPEEMKRKWQRALGEYLEKRQSLQGLVVLMDIRHPLKDLDQQMIEWAVDSNIAVAVLLTKADKLASGARKAQLNMVREAVLAFNGDVQVETFSSLKKQGVDKLRQKLDTWFSEMQPVEETQDGE [L141A] | 0.00441 ± 0.0014
MTNLNYQQTHFVMSAPDIRHLPSDTGIEVAFAGRSNAGKSSALNTLTNQKSLARTSKTPGRTQLINLFEVADGKRLVDLPGYGYAEVPEEMKRKWQRALGEYLEKRQSLQGLVVLMDIRHPLKDLDQQMIEWAVDSNIAVDVLLTKADKLASGARKAQLNMVREAVLAFNGDVQVETFSSLKKQGVDKLRQKLDTWFSEMQPVEETQDGE [L141D] | 0.0104 ± 0.0016
MTNLNYQQTHFVMSAPDIRHLPSDTGIEVAFAGRSNAGKSSALNTLTNQKSLARTSKTPGRTQLINLFEVADGKRLVDLPGYGYAEVPEEMKRKWQRALGEYLEKRQSLQGLVVLMDIRHPLKDLDQQMIEWAVDSNIAVLPLLTKADKLASGARKAQLNMVREAVLAFNGDVQVETFSSLKKQGVDKLRQKLDTWFSEMQPVEETQDGE [V142P] | < 0.013
MTNLNYQQTHFVMSAPDIRHLPSDTGIEVAFAGRSNAGKSSALNTLTNQKSLARTSKTPGRTQLINLFEVADGKRLVDLPGYGYAEVPEEMKRKWQRALGEYLEKRQSLQGLVVLMDIRHPLKDLDQQMIEWAVDSNIAVLVLATKADKLASGARKAQLNMVREAVLAFNGDVQVETFSSLKKQGVDKLRQKLDTWFSEMQPVEETQDGE [L144A] | 0.0116 ± 0.0081
MTNLNYQQTHFVMSAPDIRHLPSDTGIEVAFAGRSNAGKSSALNTLTNQKSLARTSKTPGRTQLINLFEVADGKRLVDLPGYGYAEVPEEMKRKWQRALGEYLEKRQSLQGLVVLMDIRHPLKDLDQQMIEWAVDSNIAVLVLQTKADKLASGARKAQLNMVREAVLAFNGDVQVETFSSLKKQGVDKLRQKLDTWFSEMQPVEETQDGE [L144Q] | < 0.0168
MTNLNYQQTHFVMSAPDIRHLPSDTGIEVAFAGRSNAGKSSALNTLTNQKSLARTSKTPGRTQLINLFEVADGKRLVDLPGYGYAEVPEEMKRKWQRALGEYLEKRQSLQGLVVLMDIRHPLKDLDQQMIEWAVDSNIAVLVLLTKADKLASGARKAQLNMVREAVLAFNGDVQVETFSSLKKQGVDKQRQKLDTWFSEMQPVEETQDGE [L189Q] | 0.0135 ± 0.012
MTNLNYQQTHFVMSAPDIRHLPSDTGIEVAFAGRSNAGKSSALNTLTNQKSLARTSKTPGRTQLINLFEVADGKRLVDLPGYGYAEVPEEMKRKWQRALGEYLEKRQSLQGLVVLMDIRHPLKDLDQQMIEWAVDSNIAVLVLLTKADKLASGARKAQLNMVREAVLAFNGDVQVETFSSLKKQGVDKWRQKLDTWFSEMQPVEETQDGE [L189W] | 0.0042 ± 0.00063
MTNLNYQQTHFVMSAPDIRHLPSDTGIEVAFAGRSNAGKSSALNTLTNQKSLARTSKTPGRTQLINLFEVADGKRLVDLPGYGYAEVPEEMKRKWQRALGEYLEKRQSLQGLVVAMDIRHPLKDLDQQMIEWAVDSNIAVLVLLTKADKLASGARKAQLNMVREAVLAFNGDVQVETFSSLKKQGVDKLRQKLDTWFSEMQPVEETQDGE [L115A] | 0.00446 ± 0.0039
MTNLNYQQTHFVMSAPDIRHLPSDTGIEVAFAGRSNAGKSSALNTLTNQKSLARTSKTPGRTQLINLFEVADGKRLVDLPGYGYAEVPEEMKRKWQRALGEYLEKRQSLQGLVVQMDIRHPLKDLDQQMIEWAVDSNIAVLVLLTKADKLASGARKAQLNMVREAVLAFNGDVQVETFSSLKKQGVDKLRQKLDTWFSEMQPVEETQDGE [L115Q] | 0.00348 ± 0.0005
MTNLNYQQTHFVMSAPDIRHLPSDTGIEVAFAGRSNAGKSSALNTLTNQKSLARTSKTPGRTQLINLFEVADGKRLVDLPGYGYAEVPEEMKRKWQRALGEYLEKRQSLQGLVVLMDIRHPLKDLDQQMIEWAVDSNIAVLDLLTKADKLASGARKAQLNMVREAVLAFNGDVQVETFSSLKKQGVDKLRQKLDTWFSEMQPVEETQDGE [V142D] | < 0.0213
MTNLNYQQTHFVMSAPDIRHLPSDTGIEVAFAGRSNAGKSSALNTLTNQKSLARTSKTPGRTQLINLFEVADGKRLVDLPGYGYAEVPEEMKRKWQRALGEYLEKRQSLQGLVVLMDIRHPLKDLDQQMIEWAVDSNIAVLVQLTKADKLASGARKAQLNMVREAVLAFNGDVQVETFSSLKKQGVDKLRQKLDTWFSEMQPVEETQDGE [L143Q] | < 0.0126
MTNLNYQQTHFVMSAPDIRHLPSDTGIEVAFAGRSNAGKSSALNTLTNQKSLARTSKTPGRTQLINLFEVADGKRLVDLPGYGYAEVPEEMKRKWQRALGEYLEKRQSLQGLVVLMDIRHPLKDLDQQMIEWAVDSNIAVLVLLTKADKLASGARKAQLNMVREAVLAFNGDVQVETFSSLKKQGVDKARQKLDTWFSEMQPVEETQDGE [L189A] | < 0.00158
